# Experimental data: PMC7817025
# The chains behind the UniProt entries cited, without tags or fusion partners.
# UniProt Q15910: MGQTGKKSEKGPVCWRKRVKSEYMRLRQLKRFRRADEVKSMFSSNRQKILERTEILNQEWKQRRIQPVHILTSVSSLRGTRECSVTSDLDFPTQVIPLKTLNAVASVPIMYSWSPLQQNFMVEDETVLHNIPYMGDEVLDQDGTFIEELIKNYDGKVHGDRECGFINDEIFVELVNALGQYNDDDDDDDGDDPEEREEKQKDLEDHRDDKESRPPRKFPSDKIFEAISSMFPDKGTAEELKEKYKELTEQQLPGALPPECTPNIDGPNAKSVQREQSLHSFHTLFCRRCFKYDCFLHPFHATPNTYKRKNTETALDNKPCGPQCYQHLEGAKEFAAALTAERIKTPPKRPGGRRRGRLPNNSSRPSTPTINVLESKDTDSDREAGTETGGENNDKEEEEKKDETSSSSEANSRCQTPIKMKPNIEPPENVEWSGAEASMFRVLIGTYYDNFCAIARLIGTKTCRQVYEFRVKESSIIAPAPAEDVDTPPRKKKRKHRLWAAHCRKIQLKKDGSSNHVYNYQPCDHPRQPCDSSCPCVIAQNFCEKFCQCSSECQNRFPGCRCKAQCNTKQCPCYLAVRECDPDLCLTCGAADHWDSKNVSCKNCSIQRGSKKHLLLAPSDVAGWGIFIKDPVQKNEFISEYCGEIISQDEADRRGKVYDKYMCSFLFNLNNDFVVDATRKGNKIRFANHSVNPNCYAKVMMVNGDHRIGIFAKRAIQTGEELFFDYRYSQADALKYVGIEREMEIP
# UniProt P0C746: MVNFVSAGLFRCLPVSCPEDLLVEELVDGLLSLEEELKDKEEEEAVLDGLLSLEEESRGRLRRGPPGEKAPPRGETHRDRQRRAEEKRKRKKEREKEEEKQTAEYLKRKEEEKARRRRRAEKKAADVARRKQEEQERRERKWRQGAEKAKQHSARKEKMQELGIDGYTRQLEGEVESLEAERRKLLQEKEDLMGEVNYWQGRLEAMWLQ
# UniProt Q15022: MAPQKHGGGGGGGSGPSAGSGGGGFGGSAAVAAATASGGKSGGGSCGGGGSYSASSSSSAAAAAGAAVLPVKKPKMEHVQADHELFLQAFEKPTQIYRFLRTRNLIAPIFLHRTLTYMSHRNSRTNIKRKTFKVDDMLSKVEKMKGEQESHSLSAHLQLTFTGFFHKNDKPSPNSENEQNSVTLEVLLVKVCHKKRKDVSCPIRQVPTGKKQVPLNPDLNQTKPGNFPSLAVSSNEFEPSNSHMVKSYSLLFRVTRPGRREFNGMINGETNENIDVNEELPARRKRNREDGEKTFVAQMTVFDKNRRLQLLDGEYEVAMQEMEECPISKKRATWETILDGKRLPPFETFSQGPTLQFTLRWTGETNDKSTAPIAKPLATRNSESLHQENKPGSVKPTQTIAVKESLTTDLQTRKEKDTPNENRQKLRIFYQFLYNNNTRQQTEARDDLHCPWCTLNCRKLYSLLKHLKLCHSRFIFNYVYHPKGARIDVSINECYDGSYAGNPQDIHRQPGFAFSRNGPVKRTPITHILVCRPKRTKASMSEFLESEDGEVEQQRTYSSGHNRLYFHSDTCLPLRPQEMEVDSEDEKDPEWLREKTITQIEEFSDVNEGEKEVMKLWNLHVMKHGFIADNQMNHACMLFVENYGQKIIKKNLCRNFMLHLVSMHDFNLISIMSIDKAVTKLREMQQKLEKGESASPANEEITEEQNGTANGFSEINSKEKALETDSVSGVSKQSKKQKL
# No constants are given. Whether binding was seen depends on the method and setting. Binding seen in cells or lysates may run through a third protein. Some binding calls cover weakened binding; strength is not graded here.
# Assays:
# [1] = molecular target: enhancer of zeste homolog 2 (EZH2), endogenous in HEK293T (human (endogenous in HEK293T)) (UniProt Q15910); assay: co-IP; HEK293T transfected with Tax, harvested 48 h post-transfection; nuclear extracts (10 mM Hepes pH 7.9, 150 mM NaCl, 5 mM MgCl2, 0.1% NP40), DNase I and RNase A treated; IP with rabbit anti-EZH2 overnight at 4°C, Dynabeads/Protein G; blotted against EZH2 and Tax
# [2] = molecular target: enhancer of zeste homolog 2 (EZH2), endogenous in HEK293T (human (endogenous in HEK293T)) (UniProt Q15910); assay: co-IP; as a1 but HEK293T co-transfected with Tax and HBZ expression plasmids; IP with anti-EZH2, blotted against EZH2 and Tax
# [3] = molecular target: HTLV-1 HBZ, Myc-His-tagged (pcDNA3.1-hbz-Myc-His), in HEK293T (Human T-cell leukemia virus type 1) (UniProt P0C746); assay: co-IP; HEK293T transfected with Myc-HBZ, harvested 48 h post-transfection; nuclear extracts (10 mM Hepes pH 7.9, 150 mM NaCl, 5 mM MgCl2, 0.1% NP40), DNase I and RNase A treated; IP with mouse anti-c-myc-tag (9E10) overnight at 4°C, Dynabeads/Protein G; blotted against EZH2 and SUZ12
# [4] = molecular target: HTLV-1 HBZ, Myc-His-tagged (pcDNA3.1-hbz-Myc-His), in HeLa (Human T-cell leukemia virus type 1) (UniProt P0C746); assay: proximity ligation; Duolink in situ proximity ligation assay in HeLa cells transfected with HBZ; signal in the nucleus; confocal microscopy
# [5] = molecular target: endogenous HBZ of MT-1 cells (Human T-cell leukemia virus type 1 (endogenous in MT-1)) (UniProt P0C746); assay: proximity ligation; Duolink in situ proximity ligation assay in MT-1 cells expressing endogenous HBZ; confocal microscopy
substance,measurement,setting,value
"HTLV-1 Tax, His-tagged (pcDNA3.1-Tax-His) (from UniProt P03409 1-353)",binding,[1],binds
same,binding,[2],no binding (condition: with co-transfected HBZ)
"suppressor of zeste 12 homolog (SUZ12), endogenous in HEK293T (from UniProt Q15022 1-739)",binding,[3],binds
"suppressor of zeste 12 homolog (SUZ12), endogenous in HeLa (from UniProt Q15022 1-739)",binding,[4],binds
"suppressor of zeste 12 homolog (SUZ12), endogenous in MT-1 (from UniProt Q15022 1-739)",binding,[5],binds
